# Measurements reported in PubChem BioAssay AID504706 (National Center for Advancing Translational Sciences (NCATS), 2011).
# About 200 (0.062%) of roughly 320,000 compounds were called active. The inconclusive results got no clear call from the source; some entries with a clear call stand among them for comparison. Calls follow the shape of the dose curve; as a rule, active = well fitted activation curve with a large enough effect; inconclusive = small, poorly fitted or top-dose-only effect; inactive = no such curve, though single readings can be large or run the other way. No potency is given beside an inconclusive call; the fits are too rough.
# Assay: qHTS assay for re-activators of p53 using a Luc reporter; also: nearly all actives have a fitted effect of over 45% in size
# Settings: H1299 p53-A138V BP100-luciferase reporter, luminescence, 24 h; series mostly up to 92.2 µM
# How it was run: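 p53-null H1299 cells stably carrying temperature-sensitive p53-A138V and a BP100-luciferase reporter were pinned with compounds (4-point, 1:5 series) and held 24 hrs at 37 deg C. Luminescence was read 10 min after detection reagent.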
# Potency is read from the fitted curve at half-maximal effect; tags tell the direction and shape of the fitted curve.
row,SMILES,Potency
1,Cc1cc(NC(=O)CSc2cn(CCNC(=O)c3ccc(Cl)cc3)c3ccccc23)no1,inactive
2,COc1ccc(OCCCn2ccnc2)cc1,"inconclusive [activator, single point]"
3,O=C(CN1CCCc2ccccc21)N/N=C/c1c(O)ccc2ccccc12,"inconclusive [activator, partial curve, poor fit]"
4,CCOc1ccccc1C(=O)NCC(=O)NCC(c1ccco1)N1CCCCC1 (stereo not drawn),inactive
5,Clc1ccc(-c2csc(N3CCCCCC3)n2)cc1,"inconclusive [activator, single point]"
6,CC1(N2CCOCC2)CC2(O)C(=[N+]1[O-])CCc1c2no[n+]1[O-] (stereo not drawn),"inconclusive [activator, single point]"
7,CN(C)c1ccc(NC(=O)CSc2nnc(C3CCCCC3)n2N)cc1,"inconclusive [activator, single point]"
8,COc1ccc(C2=NCCn3c2c2ccc(C(F)(F)F)cc2[n+]3[O-])cc1,inactive
9,O=C(O)c1ccccc1-c1ccccc1C(=O)Nc1ccc2c(c1)[nH]c(=O)c1ccccc12,inactive
10,COc1ccc2oc(C(=O)OC(C)C(=O)Nc3ccc(N4CCOCC4)cc3)c(C)c2c1 (stereo not drawn),"inconclusive [activator, single point]"
11,CCOC(=O)c1cn(CC(=O)Nc2cccc(Cl)c2C)nn1,inactive
12,CCOC(=O)/C=C(/C)N1N=C(c2ccc(OC)cc2)CC1c1cccc([N+](=O)[O-])c1 (stereo not drawn),"inconclusive [activator, partial curve, poor fit]"
13,O=C(Nc1cccc(-c2csc(Nc3ccc(Cl)cc3)n2)c1)c1ccccc1,"inconclusive [activator, partial curve, poor fit]"
14,O=C(c1ccc2c(c1)OCO2)C1CCCN(Cc2cccc(C(F)(F)F)c2)C1 (stereo not drawn),inactive
15,COc1cccc(C2(O)CC(C(F)(F)F)=NN2C(=O)c2ccccn2)c1 (stereo not drawn),inactive
16,CCN(CC(=O)Nc1c(F)cccc1F)C(=O)CNC(=O)c1ccco1,inactive
17,CC(=O)Nc1ccc(/C=C/c2ccc3c([N+](=O)[O-])cccc3n2)cc1,"inconclusive [activator, partial curve, poor fit]"
18,Cc1ccc(C(=O)CN2C(=O)C(C)Oc3ccccc32)cc1 (stereo not drawn),"inconclusive [activator, single point]"
19,O=C1CCCC(O)=C1N=Nc1ccc2ncsc2c1,"inconclusive [activator, partial curve, poor fit]"
20,Cc1ccc(OCC(=O)N/N=C/c2ccc([N+](=O)[O-])o2)cc1,inactive
21,Cc1ccc(N2C(=O)S/C(=C/c3cn(C)c4ccccc34)C2=O)cc1,"inconclusive [activator, partial curve, poor fit]"
22,Cc1cc(=O)n(C(NC(=O)c2ccccc2)C(=O)c2ccccc2)cn1 (stereo not drawn),"inconclusive [activator, single point]"
23,CC1(C)CC(N(Cc2cccs2)C(=O)c2ccco2)CCO1 (stereo not drawn),"inconclusive [activator, partial curve, poor fit]"
24,CN(C)c1cccc(C(=O)OCC(=O)NCC2CCCO2)c1 (stereo not drawn),"inconclusive [activator, single point]"
25,CCN1/C(=C2\OC(=S)N(C)C2=O)Sc2ccccc21,"inconclusive [activator, single point]"

row,SMILES,Potency
1,CC(C)CCN(C)C1CCN(S(=O)(=O)c2cccc(C(F)(F)F)c2)CC1,"inconclusive [activator, partial curve, poor fit]"
2,Cc1ccc(NC(=O)n2ncc3c(C)cccc32)cc1F,"inconclusive [activator, partial curve, poor fit]"
3,O=C(c1cc2ccccc2o1)N1CCCC1,inactive
4,CC(=O)Nc1cccc(/C(C)=N/NC(=O)c2ccc3c(c2)OCO3)c1,inactive
5,O=C(CCn1cccc1)N1CCc2ccccc21,"inconclusive [activator, partial curve, poor fit]"
6,Cn1sc(NC(=O)c2cccc(Cl)c2)nc1=O,"inconclusive [activator, partial curve, poor fit]"
7,Cc1c(C(=O)Nc2nc3ccccc3[nH]2)cccc1[N+](=O)[O-],"inconclusive [activator, partial curve, poor fit]"
8,OCCNCCCCOc1ccc(OCc2ccccc2)cc1,"inconclusive [activator, full curve, poor fit]"
9,COc1ccc(Nc2cc(C)nc(NCc3ccccc3)n2)cc1,inactive
10,Cc1ccc(C(=O)c2c3ccc([N+](=O)[O-])cc3[n+]([O-])n2CCCC(N)=O)cc1,inactive
11,CC(C)/C=C1\CC/C(=C\c2ccc(N(C)C)cc2)C1=O,"inconclusive [activator, partial curve, poor fit]"
12,Clc1ccc(-c2cccs2)nn1,inactive
13,CC(C)(c1ccccc1)c1ccc(OCC(O)CN2CCCC2)cc1 (stereo not drawn),inactive
14,Cc1cc(C)n2cc(COc3ccc4ccccc4c3)nc2n1,"inconclusive [activator, partial curve, poor fit]"
15,COc1ccccc1C(=O)NNC(=O)c1ccc(Cl)cc1,inactive
16,Cn1cnc([N+](=O)[O-])c1NC(C)(C)C,inactive
17,Cc1cc(NC(=O)Cn2nc([N+](=O)[O-])c(Br)c2C)no1,inactive
18,CCCCCCn1c(C)nc2c(c1=O)c1nc3ccccc3nc1n2/N=C/c1ccco1,inactive
19,c1ccc2c(N3CCCCCC3)nc(-c3ccncc3)nc2c1,inactive
20,O=C(CNC(=O)c1ccccc1)NCCCSc1ccccc1,"inconclusive [activator, partial curve, poor fit]"
21,N=c1sccn1CC(=O)Nc1ccc(S(=O)(=O)N2CCOCC2)cc1,"inconclusive [activator, single point]"
22,O=C(NCc1ccco1)C1CCN(S(=O)(=O)c2cccc([N+](=O)[O-])c2)CC1,inactive
23,Cc1noc(C)c1COC(=O)c1ccc2ccccc2n1,"inconclusive [activator, single point]"
24,N/C(=N\O)c1ccc(NC(=O)c2cccs2)cc1,"inconclusive [activator, partial curve, poor fit]"
25,Cc1ccc(C2C(C(=O)c3cc4ccccc4o3)=C(O)C(=O)N2CCN2CCOCC2)o1 (stereo not drawn),"inconclusive [activator, single point]"

row,SMILES,Potency
1,CCc1ccc(C(=O)CSc2ncn[nH]2)cc1,"inconclusive [activator, partial curve, poor fit]"
2,CCC(=O)Nc1cccc(-c2cnc3ccccc3n2)c1,"inconclusive [activator, full curve, poor fit]"
3,CCOc1ccc(NC(=O)c2ccc(Cl)c(NC(=O)c3ccco3)c2)cc1,"inconclusive [activator, single point]"
4,Cc1cccc(C(=O)Nc2nnc(-c3ccncc3)o2)c1,inactive
5,O=C(Nc1ccccc1)N1CCc2ccccc21,"inconclusive [activator, partial curve, poor fit]"
6,O=C(Nc1cccc(F)c1)Nc1ccnn1C1CCN(C(=O)c2cscn2)CC1,"inconclusive [activator, full curve, poor fit]"
7,Cc1cc(C)c(C(=O)CC(=O)c2ccccc2Cl)c(O)c1,"inconclusive [activator, single point]"
8,Cc1ccc(N=Cc2c(O)[nH]c3ccccc23)c([N+](=O)[O-])c1,inactive
9,CCCCOC(=O)Nc1ccc(C)c(Cl)c1,inactive
10,Cc1cc(NCCC(C)C)n2nc(C)c(-c3ccccc3)c2n1,inactive
11,Cc1cc(=O)oc2ccc(OCc3ccccc3)cc12,"inconclusive [activator, single point]"
12,COc1cccc(OC)c1Nc1nc(C)nc2c1nnn2Cc1ccccc1Cl,inactive
13,CCCC(=O)NC(c1ccc2c(c1)OCO2)c1cc(Cl)c2cccnc2c1O (stereo not drawn),inactive
14,COc1ccc(CCCc2n[nH]c(=S)o2)cc1C,inactive
15,CCOCC(=O)Nc1ccc2c(c1)OCCO2,"inconclusive [activator, partial curve, poor fit]"
16,O=C(CSCc1ccco1)c1ccc(Cl)s1,"inconclusive [activator, single point]"
17,CC(=O)N(/N=C1/C(=O)Nc2ccccc21)c1ccccc1,"inconclusive [activator, partial curve, poor fit]"
18,COc1ccc(C(=O)NNC(=S)Nc2ccccc2)cc1,"inconclusive [activator, full curve, poor fit]"
19,O=C(NC(=S)Nc1ccc2c(c1)OCO2)c1ccc(Cl)cc1,"inconclusive [activator, full curve, poor fit]"
20,O=C(NCCCN1CCCC1=O)C(=O)Nc1cccc(F)c1,inactive
21,COc1cc(C(=O)NCC(C)(C)CNC(=O)c2cc(OC)c(OC)c(OC)c2)cc(OC)c1OC,"inconclusive [activator, partial curve, poor fit]"
22,CCOC(=O)C1CCN(C(=O)c2ccc(C)o2)CC1,"inconclusive [activator, single point]"
23,CCOC(=O)C1CCN(c2c(Nc3ccc4c(c3)OCCO4)c(=O)c2=O)CC1,"inconclusive [activator, partial curve, poor fit]"
